# From paper PMC4336329 (PLoS ONE, 2015)
# About 14,000 (4.5%) of roughly 310,000 compounds showed an effect of 50% or more. The effect is printed as a negative number. This is one part of the list.
# Molecular target: human ether-à-go-go-related gene (hERG) potassium channel (human, UniProt Q12809)
# Assay: primary screen, population patch clamp on CHO cells stably expressing hERG
# 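Also: peak tail current of the secondary pulse compared with the same well before compound.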
# human ether-à-go-go-related gene (hERG) potassium channel, sequence (Q12809 whole entry, looked up): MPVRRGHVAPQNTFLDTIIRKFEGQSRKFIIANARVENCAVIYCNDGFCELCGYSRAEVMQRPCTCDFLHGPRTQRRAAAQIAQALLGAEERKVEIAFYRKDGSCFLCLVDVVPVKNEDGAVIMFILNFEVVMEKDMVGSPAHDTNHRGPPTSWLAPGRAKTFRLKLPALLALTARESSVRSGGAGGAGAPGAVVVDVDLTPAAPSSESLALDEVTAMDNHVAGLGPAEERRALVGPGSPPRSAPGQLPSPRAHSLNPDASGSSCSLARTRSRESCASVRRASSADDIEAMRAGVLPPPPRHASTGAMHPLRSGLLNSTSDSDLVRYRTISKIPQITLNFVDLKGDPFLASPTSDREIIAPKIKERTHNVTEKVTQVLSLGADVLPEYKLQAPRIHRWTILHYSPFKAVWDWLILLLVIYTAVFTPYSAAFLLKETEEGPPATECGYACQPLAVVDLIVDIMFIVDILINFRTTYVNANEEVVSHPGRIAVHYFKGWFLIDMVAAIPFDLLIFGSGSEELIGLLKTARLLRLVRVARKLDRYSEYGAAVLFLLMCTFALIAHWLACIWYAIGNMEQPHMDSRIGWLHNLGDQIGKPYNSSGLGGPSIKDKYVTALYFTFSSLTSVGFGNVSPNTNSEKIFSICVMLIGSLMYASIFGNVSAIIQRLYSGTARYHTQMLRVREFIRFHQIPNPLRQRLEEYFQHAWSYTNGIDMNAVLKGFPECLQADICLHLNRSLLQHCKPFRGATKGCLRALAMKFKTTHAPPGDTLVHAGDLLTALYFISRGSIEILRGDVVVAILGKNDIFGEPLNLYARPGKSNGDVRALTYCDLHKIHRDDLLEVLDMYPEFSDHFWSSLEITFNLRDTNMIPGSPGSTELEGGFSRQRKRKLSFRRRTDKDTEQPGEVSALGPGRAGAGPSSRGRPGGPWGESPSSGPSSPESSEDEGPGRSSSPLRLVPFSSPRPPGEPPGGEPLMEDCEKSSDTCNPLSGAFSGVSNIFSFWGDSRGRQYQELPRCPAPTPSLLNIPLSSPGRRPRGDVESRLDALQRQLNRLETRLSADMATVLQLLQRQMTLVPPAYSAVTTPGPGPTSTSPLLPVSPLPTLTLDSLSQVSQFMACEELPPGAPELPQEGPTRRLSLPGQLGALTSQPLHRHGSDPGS
row,SMILES,"hERG current change (%, negative = inhibition) at 10uM"
1,Cc1ccc(C)c(N2CCN(C(=O)CCS(=O)(=O)c3ccc4c(c3)NC(=O)CO4)CC2)c1,-0.942%
2,CCN1CCN(c2cc(C)c3cc(NC(=S)N4CCCC4)ccc3n2)CC1,-15.9%
3,CCC(C)N(C(=O)COC(=O)c1ccccc1SCC(=O)N1CCCC1)C1CCS(=O)(=O)C1 (stereo not drawn),3.36%
4,CCOC(=O)c1sc(=S)sc1SCc1cccc(C(F)(F)F)c1,21.9%
5,CC(Oc1ccccc1F)C(=O)NNC(=O)c1ccc(F)c(S(=O)(=O)N2CCOCC2)c1 (stereo not drawn),0.308%
6,COC(=O)C1=CN(Cc2ccc(OC)c(OC)c2)C=C(C(=O)OC)C1c1ccc(F)cc1,-3.86%
7,C=CCSc1nnc(NC(=O)Cc2ccc(OC)c(OC)c2)s1,11.7%
8,CCOc1ccc(S(=O)(=O)N(CC(=O)NN=C2CCN(C)CC2)c2ccc(C)cc2)cc1,-12.3%
9,Oc1ccc(-c2nc3ccccn3c2NCc2ccc3c(c2)OCO3)cc1,-45.8%
10,COc1ccc(N2CCN(C(=O)c3ccc4c(c3)NC(=O)C(CSCc3cccc(F)c3)N4)CC2)cc1 (stereo not drawn),13.8%
11,CCOc1ccc(NC(=O)C2CC(C)=C(C)CC2C(=O)O)cc1 (stereo not drawn),-6.91%
12,Cc1cc(=O)n2nc(N3CCC(C(=O)NCc4cccc(Br)c4)CC3)sc2n1,-51.4%
13,CS(=O)(=O)N(CC(=O)N1CCCCC1)c1sc2c(c1C#N)CCCC2,-18.4%
14,Cc1cc2c(cc(C(=O)N3CCC(C(=O)NC4CCCC4)CC3)n2Cc2c(F)cccc2Cl)o1,-30.1%
15,O=C(NNC(=O)c1csc(N2CCOCC2)n1)c1ccc(Cl)nc1,1.67%
16,c1ccc(CCn2nnnc2C(c2cccnc2)N2CCOCC2)cc1 (stereo not drawn),8.84%
17,COc1ccc(C(c2sc3nc(C)nn3c2O)N2CCN(Cc3ccccc3)CC2)cc1OC (stereo not drawn),-18.3%
18,CC(C)=CCSc1nnc([C@@H](N)Cc2c[nH]c3ccccc23)o1.Cl,12.1%
19,CC(=O)n1nc(-c2ccccc2)cc1-c1ccccc1,0.851%
20,CC(=O)c1ccccc1OC(=O)COc1ccc([N+](=O)[O-])cc1,5.6%
21,CNCCC=C1c2ccccc2CCc2ccccc21.Cl,-2.37%
22,CC(C)c1ccc(/C=N/NC(=O)C(=O)NCCCN2CCOCC2)cc1,-20.6%
23,CC[C@H](C)[C@H](NC(N)=O)C(=O)NCCc1ccc(Cl)cc1Cl,14.3%
24,Cc1cc(-c2cc(C(=O)O)c3ccccc3n2)c(C)s1,26.4%
25,CCOc1ccc(N=c2cc(-c3ccc(OC)cc3)oc3ccccc23)cc1,-2.16%
26,CC(C)Cn1c(=O)c2ccccc2n2c(CCC(=O)NCC3CCCO3)nnc12 (stereo not drawn),11.2%
27,CCCS(=O)(=O)c1c(S(=O)(=O)CCC)c2c(C)cccn2c1C(N)=O,0.725%

row,SMILES,"hERG current change (%, negative = inhibition) at 10uM"
1,CCOC(=O)C1CCN(S(=O)(=O)c2ccc3c(c2)CCN3C(C)=O)CC1,-2.33%
2,COc1ccc(CNC(=O)C(C)N(Cc2ccco2)C(=O)c2snc(C(N)=O)c2N)cc1 (stereo not drawn),-32.9%
3,O=S(=O)(c1cccs1)N1CCc2ccccc21,8.51%
4,Cc1c(C(=O)NCCc2ccc(Cl)cc2)sc2nc3n(c(=O)c12)CCC3,-21.5%
5,CCOc1cc(/C=N\NC(=O)Cn2nc([N+](=O)[O-])cc2C)ccc1OCc1cccc2ccccc12,14.2%
6,OCCn1c(SC2CCCCC2)nc2ccccc21,-4.3%
7,CC1(c2cccs2)CC(c2cccs2)=C(C#N)C(=O)N1 (stereo not drawn),-18%
8,CCCOc1ccc(N2C(=O)CC(N(Cc3ccco3)C(C)=O)C2=O)cc1 (stereo not drawn),2.43%
9,O=C(CN1CSCC1=O)N1CCN(S(=O)(=O)c2cccc(F)c2)CC1,-2.67%
10,O=C(Nc1nnc(-c2ccco2)o1)c1ccc2ccccc2c1,10.1%
11,CCN1CCCc2cc(CN(CCN3CCOCC3)C(=S)Nc3ccccc3C)ccc21,7.32%
12,Cc1ccc(C2(C)NC(=O)N(CC(=O)Nc3ccccc3N3CCCC3)C2=O)cc1 (stereo not drawn),0.923%
13,CC(OC(=O)c1cc2ccccc2o1)C(=O)Nc1ccc(N2CCOCC2)cc1 (stereo not drawn),-0.616%
14,Cc1nccn1CCOc1ccccc1Cl,-35.1%
15,COc1ccccc1CNS(=O)(=O)c1c(C)[nH]c(C)c1C(=O)N1CCCCC1,-5.86%
16,CC(=O)Nc1ccc(NC(=O)C(C)OC(=O)c2c(C)nn(-c3ccccc3)c2Cl)cc1 (stereo not drawn),-14.8%
17,COCCSc1ccccc1C(=O)N1CCN(c2ccccc2)CC1,9.14%
18,Cc1c(NC(=O)C(C)OC(=O)c2cccnc2Cl)c(=O)n(-c2ccccc2)n1C (stereo not drawn),9.23%
19,COc1ccc(-n2cc(C(=O)c3cc(Cl)ccc3O)cc(C#N)c2=O)cc1,-14.5%
20,O=C(COC(=O)Cc1ccc(-c2ccccc2)cc1)NCc1ccccc1,20.8%
21,CCOC(=O)C1CCN(c2c(-c3ccccc3)c3cc(Cl)ccc3[nH]c2=O)CC1,6.71%
22,CC1CN(C(=O)c2ccccc2OCc2ccc(Cl)cc2Cl)CC(C)O1 (stereo not drawn),-37.7%
23,Cc1c(C(=O)Nc2cccc([N+](=O)[O-])c2)csc1-c1ccccc1,16.3%
24,COc1ccc(N(CC(=O)Nc2ccc3c(c2)OCCO3)S(=O)(=O)c2c(C)noc2C)cc1,-6.74%
25,CCOC(=O)C(C)N1N=C(/C=C/c2ccc(C)cc2)CCC1=O (stereo not drawn),-30%
26,COC(=O)c1c(C)[nH]c(C(=O)C(C)OC(=O)c2cc(C)oc2C)c1C (stereo not drawn),-12.7%
27,COc1ccc(S(=O)(=O)N2CCNCC2)cc1,10.9%
